Experimental data reported in publication PMC4336329 (PLoS ONE, 2015).
Screen size: about 310,000 compounds; about 2,200 (0.71%) showed an effect of 50% or more. The effect is printed as a negative number. The list shows a part of the results.

Target: human ether-à-go-go-related gene (hERG) potassium channel (human, UniProt Q12809)
Test: primary screen, population patch clamp on CHO cells stably expressing hERG

human ether-à-go-go-related gene (hERG) potassium channel, sequence (Q12809 whole entry, looked up): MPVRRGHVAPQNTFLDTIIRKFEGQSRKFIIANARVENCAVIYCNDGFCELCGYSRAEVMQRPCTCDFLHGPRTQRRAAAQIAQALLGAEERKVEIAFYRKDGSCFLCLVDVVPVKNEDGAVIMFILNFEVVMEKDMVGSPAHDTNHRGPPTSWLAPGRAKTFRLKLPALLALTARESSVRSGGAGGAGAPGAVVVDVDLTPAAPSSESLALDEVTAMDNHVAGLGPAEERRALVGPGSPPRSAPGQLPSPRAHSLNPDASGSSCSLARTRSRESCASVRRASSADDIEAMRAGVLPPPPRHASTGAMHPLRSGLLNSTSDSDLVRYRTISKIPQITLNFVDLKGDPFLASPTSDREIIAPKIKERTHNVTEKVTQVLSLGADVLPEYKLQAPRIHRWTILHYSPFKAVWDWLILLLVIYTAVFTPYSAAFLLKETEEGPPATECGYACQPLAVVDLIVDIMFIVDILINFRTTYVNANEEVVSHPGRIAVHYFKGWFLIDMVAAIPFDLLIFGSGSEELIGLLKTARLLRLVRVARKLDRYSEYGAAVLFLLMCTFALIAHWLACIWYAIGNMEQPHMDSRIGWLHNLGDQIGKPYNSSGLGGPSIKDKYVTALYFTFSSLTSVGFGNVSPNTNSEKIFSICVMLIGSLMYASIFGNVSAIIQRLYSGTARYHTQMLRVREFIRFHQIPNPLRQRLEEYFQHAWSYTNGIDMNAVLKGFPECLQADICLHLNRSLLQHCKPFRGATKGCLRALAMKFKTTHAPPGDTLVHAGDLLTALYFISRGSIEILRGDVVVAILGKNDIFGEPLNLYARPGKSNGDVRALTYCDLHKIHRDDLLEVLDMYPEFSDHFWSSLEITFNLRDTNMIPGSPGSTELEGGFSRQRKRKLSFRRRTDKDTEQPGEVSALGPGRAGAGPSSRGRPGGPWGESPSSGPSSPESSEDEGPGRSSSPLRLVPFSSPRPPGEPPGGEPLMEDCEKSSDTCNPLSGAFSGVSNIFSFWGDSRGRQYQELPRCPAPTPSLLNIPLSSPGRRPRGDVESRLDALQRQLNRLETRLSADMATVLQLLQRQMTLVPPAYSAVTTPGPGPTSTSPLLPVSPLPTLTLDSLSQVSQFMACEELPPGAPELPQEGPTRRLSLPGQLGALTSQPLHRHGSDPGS

**Q.** How did the “hERG current change (%, negative = inhibition) at 1uM” value turn out when Cc1ccc(C(C(=O)NC2CCCC2)N(C(=O)c2csnn2)C2CCCC2)o1 (stereo not drawn) was run?
**A.** Its value is -5.39%.

**Q.** Which “hERG current change (%, negative = inhibition) at 1uM” value does the source give for NNC(=O)COc1cccc2cccnc12 here?
**A.** The value was 11.8%.

**Q.** For O=C(c1ccc2c(c1)C(=O)N(c1ccc(Cl)cc1)C2=O)N1CCN(c2ccccn2)CC1, which “hERG current change (%, negative = inhibition) at 1uM” value is on record?
**A.** Its value is 14.9%.

**Q.** With O=C(Nc1ccccc1)Nc1cccc2cccnc12 as the molecule, how does the “hERG current change (%, negative = inhibition) at 1uM” value read?
**A.** Its value is -0.516%.

**Q.** COc1ccc(NC(=O)N2c3ccccc3CC2C)cc1OC (stereo not drawn) was tested. Which “hERG current change (%, negative = inhibition) at 1uM” value did it give?
**A.** The value was -4.96%.

**Q.** COc1ccccc1C(=O)NCCN=C1NS(=O)(=O)c2ccccc21 was tested. Which “hERG current change (%, negative = inhibition) at 1uM” value did it give?
**A.** The value was 5.64%.

**Q.** Which “hERG current change (%, negative = inhibition) at 1uM” value does the source give for CCCCOc1ccc(C(=O)Nc2ccc(C)cc2[N+](=O)[O-])cc1 here?
**A.** The value was 5.12%.

**Q.** CC(C)c1ccc([N+](=O)[O-])cc1S(=O)(=O)N1CCN(C)CC1 was tested. Which “hERG current change (%, negative = inhibition) at 1uM” value did it give?
**A.** The value was 8.19%.

**Q.** How did the “hERG current change (%, negative = inhibition) at 1uM” value turn out when CC(=O)c1c(C)nc(C)nc1NC(=O)C(C)C was run?
**A.** The value was 8.35%.

**Q.** With CC(=O)Nc1ccc(Nc2ncnc(N)c2[N+](=O)[O-])cc1 as the molecule, how does the “hERG current change (%, negative = inhibition) at 1uM” value read?
**A.** Its value is 12.8%.

**Q.** For Cc1ccc(NC(=O)COC(=O)/C=C/c2cccs2)c(C)c1, which “hERG current change (%, negative = inhibition) at 1uM” value is on record?
**A.** The value was 5.19%.

**Q.** COc1ccc(N2CCN(C(=O)Nc3cccc(C(F)(F)F)c3)CC2)cc1 was tested. Which “hERG current change (%, negative = inhibition) at 1uM” value did it give?
**A.** Its value is -2.81%.

**Q.** For CCOC(CCNC(=O)c1cn(-c2cccc(C)n2)cn1)OCC, which “hERG current change (%, negative = inhibition) at 1uM” value is on record?
**A.** Its value is 4.12%.

**Q.** For O=C(N/N=C/c1ccc(Br)s1)c1ccccc1[N+](=O)[O-], which “hERG current change (%, negative = inhibition) at 1uM” value is on record?
**A.** The value was 10.3%.

**Q.** Which “hERG current change (%, negative = inhibition) at 1uM” value does the source give for N#CC[C@H](c1ccccc1)N1CCN(Cc2ccccc2)CCC1=O here?
**A.** The value was 9.18%.

**Q.** CCOc1ccc(Br)cc1CNc1ccc2c(c1)OCCO2 was tested. Which “hERG current change (%, negative = inhibition) at 1uM” value did it give?
**A.** The value was 9.14%.

**Q.** CCOC(=O)N1CCN(c2cc(=O)n(-c3ccc(OC)cc3)c(=O)[nH]2)CC1 was tested. Which “hERG current change (%, negative = inhibition) at 1uM” value did it give?
**A.** The value was 6.48%.

**Q.** How did the “hERG current change (%, negative = inhibition) at 1uM” value turn out when Cc1cc(C)nc(SCC(=O)Nc2ccc(S(=O)(=O)Nc3onc(C)c3C)cc2)n1 was run?
**A.** Its value is 3.6%.

**Q.** Which “hERG current change (%, negative = inhibition) at 1uM” value does the source give for CCOc1cnc(-c2c(-c3ccccc3Cl)noc2C)o1 here?
**A.** The value was 14%.

**Q.** Which “hERG current change (%, negative = inhibition) at 1uM” value does the source give for Cc1ccc(NC(=O)COC(=O)/C=C/c2cccs2)cc1 here?
**A.** Its value is 1.83%.

**Q.** For O=C(CCn1c(=O)oc2ccccc21)Nc1ccon1, which “hERG current change (%, negative = inhibition) at 1uM” value is on record?
**A.** Its value is 16.6%.

**Q.** Which “hERG current change (%, negative = inhibition) at 1uM” value does the source give for COc1cc(CC(=O)OCC(=O)Nc2ccc([N+](=O)[O-])cc2)cc(OC)c1OC here?
**A.** Its value is 1.31%.

**Q.** With CC1Cc2ccccc2N1C(=O)c1cc2sccc2n1Cc1ccccc1 (stereo not drawn) as the molecule, how does the “hERG current change (%, negative = inhibition) at 1uM” value read?
**A.** The value was 14.3%.

**Q.** With CN(CC(=O)NC(=O)NCc1ccccc1)CC(=O)Nc1ccc(Cl)c(C(F)(F)F)c1 as the molecule, how does the “hERG current change (%, negative = inhibition) at 1uM” value read?
**A.** Its value is 7.19%.

**Q.** Which “hERG current change (%, negative = inhibition) at 1uM” value does the source give for Cc1ccc(S(=O)(=O)NN2C(=O)/C(=C/c3cccc(F)c3)SC2=S)cc1 here?
**A.** Its value is 12.7%.

**Q.** CC1=C(C(=O)Nc2ccc(C)cc2)C(c2ccc(N(C)C)cc2)NC(=O)N1 (stereo not drawn) was tested. Which “hERG current change (%, negative = inhibition) at 1uM” value did it give?
**A.** The value was 10.8%.

**Q.** How did the “hERG current change (%, negative = inhibition) at 1uM” value turn out when CCn1nnnc1SCC(=O)NNC(=O)C1CCCCC1 was run?
**A.** Its value is 0.727%.

**Q.** How did the “hERG current change (%, negative = inhibition) at 1uM” value turn out when COc1ccc(OC)c(Cc2nnc(CCC(=O)N3CCN(C4CCCC4)CC3)o2)c1 was run?
**A.** Its value is 8.71%.

**Q.** Which “hERG current change (%, negative = inhibition) at 1uM” value does the source give for O=C(NCC1CCCO1)c1cc2nc(-c3ccco3)cc(C(F)(F)Cl)n2n1 (stereo not drawn) here?
**A.** Its value is 4.95%.

**Q.** Which “hERG current change (%, negative = inhibition) at 1uM” value does the source give for CCOc1cc(/C=N/NC(=O)c2cccnc2)ccc1OCc1ccc(C(=O)OC)o1 here?
**A.** The value was 14.1%.

**Q.** CCn1cc(Br)c(C(=O)NC(=S)Nc2ccc(C(=O)OC)cc2)n1 was tested. Which “hERG current change (%, negative = inhibition) at 1uM” value did it give?
**A.** Its value is 4.44%.

**Q.** For CCc1nc2oc(C(=O)c3ccccc3)c(N)c2c2c1COC(C)(C)C2, which “hERG current change (%, negative = inhibition) at 1uM” value is on record?
**A.** The value was 7.16%.

**Q.** COCCNS(=O)(=O)c1ccc(C2CNC(=O)C2)cc1 (stereo not drawn) was tested. Which “hERG current change (%, negative = inhibition) at 1uM” value did it give?
**A.** The value was 11.3%.

**Q.** NC(=O)SCC(=O)Nc1ccc(Cl)cc1 was tested. Which “hERG current change (%, negative = inhibition) at 1uM” value did it give?
**A.** Its value is 15.6%.

**Q.** Which “hERG current change (%, negative = inhibition) at 1uM” value does the source give for O=S(=O)(NCCCCNS(=O)(=O)c1c(F)cccc1F)c1ccc2c(c1)OCCO2 here?
**A.** The value was 11%.

**Q.** For CC(C)(C)n1cccc1/C=C1\C(=O)NC(=O)N(c2ccccc2)C1=O, which “hERG current change (%, negative = inhibition) at 1uM” value is on record?
**A.** Its value is 17.6%.

**Q.** Which “hERG current change (%, negative = inhibition) at 1uM” value does the source give for Cc1ccc(OC(=O)N2CCOCC2)cc1 here?
**A.** The value was 13.5%.

**Q.** Which “hERG current change (%, negative = inhibition) at 1uM” value does the source give for O=C(COc1ccc(F)cc1Cl)Nc1cccc(S(=O)(=O)N2CCCC2)c1 here?
**A.** Its value is 8.43%.

**Q.** O=C(Nc1ccnn1C1CCN(C2CCOCC2)CC1)c1cccc(F)c1 was tested. Which “hERG current change (%, negative = inhibition) at 1uM” value did it give?
**A.** The value was 1.92%.

**Q.** O=C(NCCCSc1ccccc1)c1ccc(=O)[nH]c1 was tested. Which “hERG current change (%, negative = inhibition) at 1uM” value did it give?
**A.** Its value is 19.6%.

**Q.** CCOc1cc(/C=C/c2cc(C(=O)O)c3ccccc3n2)ccc1OC was tested. Which “hERG current change (%, negative = inhibition) at 1uM” value did it give?
**A.** The value was 7.93%.

**Q.** With COc1cccc2c1CCC(NC(C)=O)C2=O (stereo not drawn) as the molecule, how does the “hERG current change (%, negative = inhibition) at 1uM” value read?
**A.** The value was 23%.

**Q.** With CC(=O)Nc1ccc(NC(=O)c2ccc(C3SCC(=O)N3CCc3ccccc3)cc2)cc1 (stereo not drawn) as the molecule, how does the “hERG current change (%, negative = inhibition) at 1uM” value read?
**A.** Its value is 14.2%.

**Q.** c1ccc(OCCCn2nnc(-c3ccncc3)n2)cc1 was tested. Which “hERG current change (%, negative = inhibition) at 1uM” value did it give?
**A.** The value was 8.23%.

**Q.** With O=C(c1ccc(F)cc1)N1CCC(C(=O)N2CCN(S(=O)(=O)c3cccc([N+](=O)[O-])c3)CC2)CC1 as the molecule, how does the “hERG current change (%, negative = inhibition) at 1uM” value read?
**A.** Its value is 5.11%.

**Q.** For O=C(Cn1c(COc2ccccc2)nc2ccccc21)Nc1cc(Cl)c(Cl)cc1Cl, which “hERG current change (%, negative = inhibition) at 1uM” value is on record?
**A.** The value was 3.53%.

**Q.** CNc1ccccc1C(=O)OCC(=O)Nc1ccc2c(c1)OCO2 was tested. Which “hERG current change (%, negative = inhibition) at 1uM” value did it give?
**A.** Its value is 5.33%.

**Q.** How did the “hERG current change (%, negative = inhibition) at 1uM” value turn out when Cc1ccc(C(=O)N2CCN(c3ccc(N4CCOCC4)nn3)CC2)cc1C was run?
**A.** The value was -10.2%.

**Q.** Cc1nc(CS(=O)(=O)c2ccccn2)sc1C(=O)NNC(=O)c1ccccc1 was tested. Which “hERG current change (%, negative = inhibition) at 1uM” value did it give?
**A.** Its value is 11.5%.

**Q.** COCCNC(=O)CCC1CCN(Cc2cccc(Oc3ccccc3)c2)CC1 was tested. Which “hERG current change (%, negative = inhibition) at 1uM” value did it give?
**A.** The value was -27.3%.

**Q.** For CN1C2C=C(N(C(=O)c3ccc(Cl)cc3)c3ccccc3)CC1CC2.Cl (stereo not drawn), which “hERG current change (%, negative = inhibition) at 1uM” value is on record?
**A.** The value was -69.8%.

**Q.** With COc1ccc(NC(=O)c2ccc(S(=O)(=O)NCc3cccnc3)cc2)cc1 as the molecule, how does the “hERG current change (%, negative = inhibition) at 1uM” value read?
**A.** Its value is -13.3%.

**Q.** CCCN1CCC(=O)N([C@H](CO)c2ccccc2)CC1 was tested. Which “hERG current change (%, negative = inhibition) at 1uM” value did it give?
**A.** The value was 9.74%.

**Q.** How did the “hERG current change (%, negative = inhibition) at 1uM” value turn out when C[C@]12CC[C@@H]3c4ccc(O)cc4CC[C@H]3[C@@H]1CCC2=O was run?
**A.** Its value is 12%.

**Q.** O=C(NNC(=O)c1ccc(O)c(Cl)c1)c1cccc(S(=O)(=O)N2CCOCC2)c1 was tested. Which “hERG current change (%, negative = inhibition) at 1uM” value did it give?
**A.** Its value is 12%.

**Q.** COCCCNC(=O)CN(c1cc(C(F)(F)F)ccc1Cl)S(C)(=O)=O was tested. Which “hERG current change (%, negative = inhibition) at 1uM” value did it give?
**A.** The value was 0.758%.

**Q.** COc1ccc(/C=C/C(=O)c2ccc(NS(=O)(=O)c3ccc(C)cc3)cc2)cc1O was tested. Which “hERG current change (%, negative = inhibition) at 1uM” value did it give?
**A.** Its value is 10.9%.
